Whole data set: some 81,000 sequences, median “one-hybrid fitness for binding parS DNA” near -0.17, cut for the highest 2% near 0.51. This is one part of the list.
B1: Caulobacter ParB omega fusion; a variant is named by its letters at X, in order, B8GW30 (parent)
chain: MESVVVGEPGMSEGRRGLGRGLSALLGEVDAAPAQAPGEQLGGSREAPIEILQRNPDQPRRTFREEDLEDLSNSIREKGVLQPILVRPSPDTAGEYQIVAGERAWRAAQRAGLKTVPIMVRELDDLAVLEIGIIENVQRADLNVLEEALSYKVLMEKFERTQENIAQTIGKSXSHVANXMRLLXLPDEVQSYLVSGELTAXHARAIAAAADPVALAKQIIEGGLSVRETEALARKAPNLSAGKSKGGRPPRVKDTDTQALESDLSSVLGLDVSIDHRGSTGTLTITYATLEQLDDLCNRLTRGI

Variants of: B1
Assay: one-hybrid fitness for binding parS DNA (scaled: cognate 1, non-cognate 0); higher = stronger binding
Conditions: with parS DNA site
Outline: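 Values were rescaled so that cognate is 1 and non-cognate is 0. Each is a fitness, the log change in a variant's read ratio to wild type from Illumina reads of plasmids before and after selection, with three replicate libraries pooled and variants under 10 reads dropped. Selection of the Caulobacter ParB libraries, four specificity codons randomised, used E. coli USO with a HIS3 reporter, site 19 bp from the promoter, on M9-minus-histidine with 0.1 mM IPTG and 5 mM 3-AT for 48 hours at 37°C.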

Row | Variant | one-hybrid fitness for binding parS DNA
1 | NGAL | ≤ 0.2
2 | IISC | ≤ 0.2
3 | SFTL | ≤ 0.2
4 | KQWG | ≤ 0.2
5 | TIDK | ≤ 0.2
6 | SMRC | ≤ 0.2
7 | WPST | ≤ 0.2
8 | YVSQ | ≤ 0.2
9 | NQWP | ≤ 0.2
10 | FDVD | ≤ 0.2
11 | RSES | 0.902
12 | LFME | ≤ 0.2
13 | PMRC | ≤ 0.2
14 | IHPR | ≤ 0.2
15 | VCQS | ≤ 0.2
16 | ALRQ | ≤ 0.2
17 | WQSG | ≤ 0.2
18 | SWYT | ≤ 0.2
19 | AALP | ≤ 0.2
20 | GSHK | ≤ 0.2
21 | GSNS | ≤ 0.2
22 | ERVG | ≤ 0.2
23 | QCSF | ≤ 0.2
24 | FHHC | ≤ 0.2

Row | Variant | one-hybrid fitness for binding parS DNA
25 | TKVY | ≤ 0.2
26 | YPFC | ≤ 0.2
27 | AAEP | ≤ 0.2
28 | PSLW | ≤ 0.2
29 | APPL | ≤ 0.2
30 | DGGS | ≤ 0.2
31 | PPMF | ≤ 0.2
32 | RIMW | ≤ 0.2
33 | TWAF | ≤ 0.2
34 | DRVV | ≤ 0.2
35 | TCIR | ≤ 0.2
36 | FDRV | ≤ 0.2
37 | VVFC | ≤ 0.2
38 | NWHD | ≤ 0.2
39 | EHCS | ≤ 0.2
40 | CEFR | ≤ 0.2
41 | HDTY | ≤ 0.2
42 | KTDA | ≤ 0.2
43 | NFAG | ≤ 0.2
44 | CLIH | ≤ 0.2
45 | CLRW | ≤ 0.2
46 | PLYT | ≤ 0.2
47 | PAMG | ≤ 0.2
48 | WLRR | ≤ 0.2

Row | Variant | one-hybrid fitness for binding parS DNA
49 | IAFM | ≤ 0.2
50 | MMPT | ≤ 0.2
51 | PKKC | ≤ 0.2
52 | KMYA | ≤ 0.2
53 | KWAS | ≤ 0.2
54 | STTK | ≤ 0.2
55 | ERQG | ≤ 0.2
56 | HSTR | ≤ 0.2
57 | IYIV | ≤ 0.2
58 | STRP | ≤ 0.2
59 | CRVM | ≤ 0.2
60 | EYTA | ≤ 0.2
61 | FWPG | ≤ 0.2
62 | HRTD | ≤ 0.2
63 | AYDW | ≤ 0.2
64 | GRAS | ≤ 0.2
65 | VLHP | ≤ 0.2
66 | GGDL | ≤ 0.2
67 | FRKN | ≤ 0.2
68 | PLSY | ≤ 0.2
69 | VRLC | ≤ 0.2
70 | NAIH | ≤ 0.2
71 | QSME | ≤ 0.2
72 | MWWS | ≤ 0.2

Row | Variant | one-hybrid fitness for binding parS DNA
73 | NRVS | ≤ 0.2
74 | EDLS | ≤ 0.2
75 | KLYC | ≤ 0.2
76 | ATCR | ≤ 0.2
77 | PIQQ | ≤ 0.2
78 | TLNE | ≤ 0.2
79 | QAPY | ≤ 0.2
80 | PSKG | ≤ 0.2
81 | YPHD | ≤ 0.2
82 | TPYY | ≤ 0.2
83 | EMAC | ≤ 0.2
84 | KFPC | ≤ 0.2
85 | MHVT | ≤ 0.2
86 | IGDW | ≤ 0.2
87 | APTG | ≤ 0.2
88 | LTSD | ≤ 0.2
89 | KSNN | ≤ 0.2
90 | SSWT | ≤ 0.2
91 | PGIS | ≤ 0.2
92 | HTKM | ≤ 0.2
93 | RGNG | 0.801
94 | LDWL | ≤ 0.2
95 | SAGE | ≤ 0.2
96 | IPHV | ≤ 0.2

Row | Variant | one-hybrid fitness for binding parS DNA
97 | PVML | ≤ 0.2
98 | AWNS | ≤ 0.2
99 | ASPR | ≤ 0.2
100 | QIKP | ≤ 0.2
101 | TFKC | ≤ 0.2
102 | MQSY | ≤ 0.2
103 | ELCF | ≤ 0.2
104 | KGGI | ≤ 0.2
105 | NTRV | ≤ 0.2
106 | RQDH | ≤ 0.2
107 | CFRT | ≤ 0.2
108 | VVPP | ≤ 0.2
109 | YLYR | ≤ 0.2
110 | NHDW | ≤ 0.2
111 | ANKC | ≤ 0.2
112 | TLPL | ≤ 0.2
113 | KANL | ≤ 0.2
114 | RFSH | ≤ 0.2
115 | ETKR | ≤ 0.2
116 | TPCD | ≤ 0.2
117 | YSAG | ≤ 0.2
118 | DFLS | ≤ 0.2
119 | QKQI | ≤ 0.2
120 | PEAN | ≤ 0.2

Row | Variant | one-hybrid fitness for binding parS DNA
121 | NTTI | ≤ 0.2
122 | RRVC | 0.673
123 | GPCI | ≤ 0.2
124 | LHVT | ≤ 0.2
125 | VIVS | ≤ 0.2
126 | YLAD | ≤ 0.2
127 | QSQH | ≤ 0.2
128 | KTMR | ≤ 0.2
129 | LRLG | ≤ 0.2
130 | QCPV | ≤ 0.2
131 | NSLW | ≤ 0.2
132 | YQAR | ≤ 0.2
133 | LVED | ≤ 0.2
134 | ADTP | ≤ 0.2
135 | AKPN | ≤ 0.2
136 | KRRD | ≤ 0.2
137 | QTAV | ≤ 0.2
138 | EVVR | ≤ 0.2
139 | MGVG | ≤ 0.2
140 | QKID | ≤ 0.2
141 | HAQY | ≤ 0.2
142 | LREM | ≤ 0.2
143 | YDWG | ≤ 0.2
144 | GGSF | ≤ 0.2

Row | Variant | one-hybrid fitness for binding parS DNA
145 | VSHT | ≤ 0.2
146 | PQGY | ≤ 0.2
147 | LEDW | ≤ 0.2
148 | LSRH | ≤ 0.2
149 | VWKI | ≤ 0.2
150 | AIWC | ≤ 0.2
151 | YTST | ≤ 0.2
152 | NIAY | ≤ 0.2
153 | QRSI | ≤ 0.2
154 | NTAE | ≤ 0.2
155 | VTAS | ≤ 0.2
156 | KRAC | ≤ 0.2
157 | ANND | ≤ 0.2
158 | CMNC | ≤ 0.2
159 | GSVQ | ≤ 0.2
160 | YPQY | ≤ 0.2
161 | PKID | ≤ 0.2
162 | QPAT | ≤ 0.2
163 | PQKY | ≤ 0.2
164 | SNTA | ≤ 0.2
165 | TKAC | ≤ 0.2
166 | RYWA | 0.554
167 | QHDF | ≤ 0.2
168 | SGQL | ≤ 0.2

Row | Variant | one-hybrid fitness for binding parS DNA
169 | MMEC | ≤ 0.2
170 | RIFY | 0.462
171 | STAQ | ≤ 0.2
172 | AGGR | ≤ 0.2
173 | HGCS | ≤ 0.2
174 | IYVT | ≤ 0.2
175 | SYGG | ≤ 0.2
176 | TEHC | ≤ 0.2
177 | QRKV | ≤ 0.2
178 | DAPS | ≤ 0.2
179 | KPIS | ≤ 0.2
180 | KSIV | ≤ 0.2
181 | KRCL | ≤ 0.2
182 | PVGT | ≤ 0.2
183 | NHQT | ≤ 0.2
184 | TVIG | ≤ 0.2
185 | RNWQ | ≤ 0.2
186 | KHMG | ≤ 0.2
187 | WDMT | 0.344
188 | PHKA | ≤ 0.2
189 | SRDI | ≤ 0.2
190 | VDAS | ≤ 0.2
191 | LVAY | ≤ 0.2
192 | QPHF | ≤ 0.2

Row | Variant | one-hybrid fitness for binding parS DNA
193 | LDHC | ≤ 0.2
194 | LCRV | ≤ 0.2
195 | HGLM | ≤ 0.2
196 | RETH | ≤ 0.2
197 | YMEF | ≤ 0.2
198 | IKRT | ≤ 0.2
199 | DYIS | ≤ 0.2
200 | ELFG | ≤ 0.2
201 | SRKQ | ≤ 0.2
202 | SQQA | ≤ 0.2
203 | RQMA | 0.596
204 | NMPE | ≤ 0.2
205 | VELC | ≤ 0.2
206 | KFYT | ≤ 0.2
207 | QTPT | ≤ 0.2
208 | CGAY | ≤ 0.2
209 | MATR | ≤ 0.2
210 | PYPI | ≤ 0.2
211 | QDPE | ≤ 0.2
212 | MGVN | ≤ 0.2
213 | VLSG | ≤ 0.2
214 | SQIW | ≤ 0.2
215 | SRVL | ≤ 0.2
216 | IIPC | ≤ 0.2

Row | Variant | one-hybrid fitness for binding parS DNA
217 | LHEK | ≤ 0.2
218 | DDDP | ≤ 0.2
219 | QNRV | ≤ 0.2
220 | LCLM | ≤ 0.2
221 | AYLA | ≤ 0.2
222 | NWLE | ≤ 0.2
223 | SCAR | ≤ 0.2
224 | RMNN | 0.467
225 | TAYR | ≤ 0.2
226 | RNWP | ≤ 0.2
227 | LYAG | ≤ 0.2
228 | AMPN | ≤ 0.2
229 | HSPG | ≤ 0.2
230 | RFLM | 0.247
231 | ASQT | ≤ 0.2
232 | QGKN | ≤ 0.2
233 | SKRA | ≤ 0.2
234 | LLCT | ≤ 0.2
235 | NYER | ≤ 0.2
236 | SFAT | ≤ 0.2
237 | PMST | ≤ 0.2
238 | LYCS | ≤ 0.2
239 | RAWH | 0.223
240 | RSCM | 0.347

Row | Variant | one-hybrid fitness for binding parS DNA
241 | YLNS | ≤ 0.2
242 | ERTI | ≤ 0.2
243 | QIVV | ≤ 0.2
244 | DHNS | ≤ 0.2
245 | VYPT | ≤ 0.2
246 | HMHT | ≤ 0.2
247 | MQCR | ≤ 0.2
248 | FRNR | ≤ 0.2
249 | YPHC | ≤ 0.2
250 | TNCL | ≤ 0.2
251 | RKSL | ≤ 0.2
252 | QRST | ≤ 0.2
253 | YGER | ≤ 0.2
254 | CGQV | ≤ 0.2
255 | QRCI | ≤ 0.2
256 | QFHS | ≤ 0.2
257 | TNNC | ≤ 0.2
258 | DPCG | ≤ 0.2
259 | QYWS | ≤ 0.2
260 | EQLG | ≤ 0.2
261 | KRKN | ≤ 0.2
262 | WVDV | ≤ 0.2
263 | LYFQ | ≤ 0.2
264 | VWLK | ≤ 0.2

Row | Variant | one-hybrid fitness for binding parS DNA
265 | LMSR | ≤ 0.2
266 | PTCP | ≤ 0.2
267 | HATF | ≤ 0.2
268 | VRYW | ≤ 0.2
269 | WKLY | ≤ 0.2
270 | PVKC | ≤ 0.2
271 | TVVL | ≤ 0.2
272 | HFVS | ≤ 0.2
273 | GAYG | ≤ 0.2
274 | LPCS | ≤ 0.2
275 | RKTS | 0.815
276 | RNAL | ≤ 0.2
277 | HYET | ≤ 0.2
278 | ERVN | ≤ 0.2
279 | WTAR | ≤ 0.2
280 | SDYT | ≤ 0.2
281 | SRVM | ≤ 0.2
282 | YLPR | ≤ 0.2
283 | NDTT | ≤ 0.2
284 | PRPM | ≤ 0.2
285 | SSCV | ≤ 0.2
286 | QADQ | ≤ 0.2
287 | AGLT | ≤ 0.2
288 | LVYM | ≤ 0.2

Row | Variant | one-hybrid fitness for binding parS DNA
289 | IRRM | ≤ 0.2
290 | SQTC | ≤ 0.2
291 | DRYP | ≤ 0.2
292 | YYCL | ≤ 0.2
293 | YSHL | ≤ 0.2
294 | VGIG | ≤ 0.2
295 | YRYF | ≤ 0.2
296 | TMGD | ≤ 0.2
297 | QQGC | ≤ 0.2
298 | IPDA | ≤ 0.2
299 | TRWF | ≤ 0.2
300 | LLYP | ≤ 0.2
301 | VNPD | ≤ 0.2
302 | VSLS | ≤ 0.2
303 | PTMA | ≤ 0.2
304 | LKYI | ≤ 0.2
305 | DPDN | ≤ 0.2
306 | IARY | ≤ 0.2
